# The supplement of paper PMC8728848
# Some of the results follow.
# B1: CaSRK1 (Capsicum annuum) (protein)
# chain: MALCKIFPFAFILLSCSCYLISGQRFDYPTANLSTTWINSVSAPHSIDYTDGSRIRAILLRGTFGPRYACGFYCNGNCESYLFAIFIVQTNSASQITSPAIGFPQVVWSANRNNPVKINSTLQLTAEGDLVLRDADGTLAWSTNTAGKSVAGLSLTDEGNLALFDSKNATVWQSFDHPTDALVPGQKLVPGMKLTASVSRTNWTAGGLFALSAIDNGLVAFVESNPPQKYFEASVGGSNTSGGSNYVKYLNGSLTLFTHSADTTELILISITPASSAQYMKLESNGHLKVYEWTSRGWREVDDLLTGFRGECNYPTVCGRYGICTMGQCSCPTSSSSRTYFRPIDVRRPSLGCSEVTKLTCQNTKKHSPLEVEDVDYFAFKAGISDTDLNTCKRACLEKCSCKAAFFRSGLNSSRTRGDCYLPTEIFSIMNNEKDRTRYDSVAFIKVQV
# Tests used:
# Experiment in all cases: glycan array binding signal (z-score within array); higher = stronger binding
# Conditions in all cases: glycan notation: IUPAC condensed, linker removed
# [1] = target: GlcNAc(b1-2)Man(a1-3)[GlcNAc(b1-2)Man(a1-6)]Man(b1-4)GlcNAc(b1-4)GlcNAc
# Procedure, shortened: (§1)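 The binding signal is a Z-score computed within each array and averaged over linkers. Arrays of the same protein sequence at different concentrations or buffers were also averaged together. Data originate from 3228 arrays in the Consortium for Functional Glycomics database, kept only where the protein sequence was available.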
# [2] = target: GlcNAc(b1-2)Man(a1-3)[GlcNAc(b1-2)Man(a1-6)]Man(b1-4)GlcNAc(b1-4)[Fuc(a1-6)]GlcNAc
# Procedure, shortened: as §1
# [3] = target: GlcNAc(b1-2)Man(a1-3)[GlcNAc(b1-4)][GlcNAc(b1-2)Man(a1-6)]Man(b1-4)GlcNAc(b1-4)GlcNAc
# Procedure, shortened: as §1
# [4] = target: GlcNAc(b1-2)Man(a1-3)[GlcNAc(b1-4)][GlcNAc(b1-2)Man(a1-6)]Man(b1-4)GlcNAc(b1-4)[Fuc(a1-6)]GlcNAc
# Procedure, shortened: as §1
# [5] = target: GlcNAc(b1-2)[GlcNAc(b1-4)]Man(a1-3)[GlcNAc(b1-2)Man(a1-6)]Man(b1-4)GlcNAc(b1-4)GlcNAc
# Procedure, shortened: as §1
# [6] = target: GlcNAc(b1-2)[GlcNAc(b1-4)]Man(a1-3)[GlcNAc(b1-4)][GlcNAc(b1-2)Man(a1-6)]Man(b1-4)GlcNAc(b1-4)GlcNAc
# Procedure, shortened: as §1
# [7] = target: GlcNAc(b1-2)[GlcNAc(b1-4)]Man(a1-3)[GlcNAc(b1-4)][GlcNAc(b1-2)[GlcNAc(b1-6)]Man(a1-6)]Man(b1-4)GlcNAc(b1-4)GlcNAc
# Procedure, shortened: as §1
# [8] = target: GlcNAc(b1-2)[GlcNAc(b1-4)]Man(a1-3)[GlcNAc(b1-4)][GlcNAc(b1-2)[GlcNAc(b1-6)]Man(a1-6)]Man(b1-4)GlcNAc(b1-4)[Fuc(a1-6)]GlcNAc
# Procedure, shortened: as §1
# [9] = target: GlcNAc(b1-2)[GlcNAc(b1-6)]Man(a1-6)[GlcNAc(b1-2)Man(a1-3)]Man(b1-4)GlcNAc(b1-4)GlcNAc
# Procedure, shortened: as §1
# [10] = target: GlcNAc(b1-2)[GlcNAc(b1-6)]Man(a1-6)[GlcNAc(b1-2)Man(a1-3)]Man(b1-4)GlcNAc(b1-4)[Fuc(a1-6)]GlcNAc
# Procedure, shortened: as §1
# [11] = target: GlcNAc(b1-2)[GlcNAc(b1-6)]Man(a1-6)[GlcNAc(b1-4)][GlcNAc(b1-2)Man(a1-3)]Man(b1-4)GlcNAc(b1-4)GlcNAc
# Procedure, shortened: as §1
# GlcNAc(b1-3)Fuc = target: GlcNAc(b1-3)Fuc
# Procedure, shortened: as §1
# GlcNAc(b1-3)Gal = target: GlcNAc(b1-3)Gal
# Procedure, shortened: as §1
# [12] = target: GlcNAc(b1-3)Gal(b1-3)GalNAc
# Procedure, shortened: as §1
# GlcNAc(b1-3)Gal(b1-4)Glc = target: GlcNAc(b1-3)Gal(b1-4)Glc
# Procedure, shortened: as §1
# [13] = target: GlcNAc(b1-3)Gal(b1-4)GlcNAc
# Procedure, shortened: as §1
# [14] = target: GlcNAc(b1-3)Gal(b1-4)GlcNAc(b1-2)Man(a1-3)[GlcNAc(b1-3)Gal(b1-4)GlcNAc(b1-2)Man(a1-6)]Man(b1-4)GlcNAc(b1-4)GlcNAc
# Procedure, shortened: as §1
# [15] = target: GlcNAc(b1-3)Gal(b1-4)GlcNAc(b1-2)Man(a1-3)[GlcNAc(b1-3)Gal(b1-4)GlcNAc(b1-2)Man(a1-6)]Man(b1-4)GlcNAc(b1-4)[Fuc(a1-6)]GlcNAc
# Procedure, shortened: as §1
# [16] = target: GlcNAc(b1-3)Gal(b1-4)GlcNAc(b1-2)[GlcNAc(b1-3)Gal(b1-4)GlcNAc(b1-6)]Man(a1-6)[GlcNAc(b1-3)Gal(b1-4)GlcNAc(b1-2)Man(a1-3)]Man(b1-4)GlcNAc(b1-4)GlcNAc
# Procedure, shortened: as §1
# [17] = target: GlcNAc(b1-3)Gal(b1-4)GlcNAc(b1-3)Gal(b1-4)GlcNAc
# Procedure, shortened: as §1
# [18] = target: GlcNAc(b1-3)Gal(b1-4)GlcNAc(b1-3)Gal(b1-4)GlcNAc(b1-2)Man(a1-3)[GlcNAc(b1-3)Gal(b1-4)GlcNAc(b1-3)Gal(b1-4)GlcNAc(b1-2)Man(a1-6)]Man(b1-4)GlcNAc(b1-4)GlcNAc
# Procedure, shortened: as §1
# [19] = target: GlcNAc(b1-3)Gal(b1-4)GlcNAc(b1-3)Gal(b1-4)GlcNAc(b1-2)Man(a1-3)[GlcNAc(b1-3)Gal(b1-4)GlcNAc(b1-3)Gal(b1-4)GlcNAc(b1-2)Man(a1-6)]Man(b1-4)GlcNAc(b1-4)[Fuc(a1-6)]GlcNAc
# Procedure, shortened: as §1
# [20] = target: GlcNAc(b1-3)Gal(b1-4)GlcNAc(b1-3)Gal(b1-4)GlcNAc(b1-2)[GlcNAc(b1-3)Gal(b1-4)GlcNAc(b1-3)Gal(b1-4)GlcNAc(b1-6)]Man(a1-6)[GlcNAc(b1-3)Gal(b1-4)GlcNAc(b1-3)Gal(b1-4)GlcNAc(b1-2)Man(a1-3)]Man(b1-4)GlcNAc(b1-4)[Fuc(a1-6)]GlcNAc
# Procedure, shortened: as §1
# [21] = target: GlcNAc(b1-3)Gal(b1-4)GlcNAc(b1-3)Gal(b1-4)GlcNAc(b1-3)Gal(b1-4)GlcNAc(b1-2)Man(a1-3)[GlcNAc(b1-3)Gal(b1-4)GlcNAc(b1-3)Gal(b1-4)GlcNAc(b1-3)Gal(b1-4)GlcNAc(b1-2)Man(a1-6)]Man(b1-4)GlcNAc(b1-4)GlcNAc
# Procedure, shortened: as §1
# [22] = target: GlcNAc(b1-3)Gal(b1-4)GlcNAc(b1-3)Gal(b1-4)GlcNAc(b1-3)Gal(b1-4)GlcNAc(b1-2)Man(a1-3)[GlcNAc(b1-3)Gal(b1-4)GlcNAc(b1-3)Gal(b1-4)GlcNAc(b1-3)Gal(b1-4)GlcNAc(b1-2)Man(a1-6)]Man(b1-4)GlcNAc(b1-4)[Fuc(a1-6)]GlcNAc
# Procedure, shortened: as §1
# [23] = target: GlcNAc(b1-3)Gal(b1-4)GlcNAc(b1-3)Gal(b1-4)GlcNAc(b1-3)Gal(b1-4)GlcNAc(b1-2)[GlcNAc(b1-3)Gal(b1-4)GlcNAc(b1-3)Gal(b1-4)GlcNAc(b1-3)Gal(b1-4)GlcNAc(b1-6)]Man(a1-6)[GlcNAc(b1-3)Gal(b1-4)GlcNAc(b1-3)Gal(b1-4)GlcNAc(b1-3)Gal(b1-4)GlcNAc(b1-2)Man(a1-3)]Man(b1-4)GlcNAc(b1-4)[Fuc(a1-6)]GlcNAc
# Procedure, shortened: as §1
# [24] = target: GlcNAc(b1-3)Gal(b1-4)GlcNAc(b1-3)Gal(b1-4)GlcNAc(b1-3)Gal(b1-4)GlcNAc(b1-3)Gal(b1-4)GlcNAc(b1-2)Man(a1-3)[GlcNAc(b1-3)Gal(b1-4)GlcNAc(b1-3)Gal(b1-4)GlcNAc(b1-3)Gal(b1-4)GlcNAc(b1-3)Gal(b1-4)GlcNAc(b1-2)Man(a1-6)]Man(b1-4)GlcNAc(b1-4)GlcNAc
# Procedure, shortened: as §1
# [25] = target: GlcNAc(b1-3)Gal(b1-4)GlcNAc(b1-3)Gal(b1-4)GlcNAc(b1-3)Gal(b1-4)GlcNAc(b1-3)Gal(b1-4)GlcNAc(b1-2)Man(a1-3)[GlcNAc(b1-3)Gal(b1-4)GlcNAc(b1-3)Gal(b1-4)GlcNAc(b1-3)Gal(b1-4)GlcNAc(b1-3)Gal(b1-4)GlcNAc(b1-2)Man(a1-6)]Man(b1-4)GlcNAc(b1-4)[Fuc(a1-6)]GlcNAc
# Procedure, shortened: as §1
# [26] = target: GlcNAc(b1-3)Gal(b1-4)GlcNAc(b1-3)Gal(b1-4)GlcNAc(b1-3)Gal(b1-4)GlcNAc(b1-3)Gal(b1-4)GlcNAc(b1-2)[GlcNAc(b1-3)Gal(b1-4)GlcNAc(b1-3)Gal(b1-4)GlcNAc(b1-3)Gal(b1-4)GlcNAc(b1-3)Gal(b1-4)GlcNAc(b1-6)]Man(a1-6)[GlcNAc(b1-3)Gal(b1-4)GlcNAc(b1-3)Gal(b1-4)GlcNAc(b1-3)Gal(b1-4)GlcNAc(b1-3)Gal(b1-4)GlcNAc(b1-2)Man(a1-3)]Man(b1-4)GlcNAc(b1-4)[Fuc(a1-6)]GlcNAc
# Procedure, shortened: as §1
# [27] = target: GlcNAc(b1-3)Gal(b1-4)GlcNAc(b1-3)Gal(b1-4)GlcNAc(b1-3)GalNAc
# Procedure, shortened: as §1
# [28] = target: GlcNAc(b1-3)Gal(b1-4)GlcNAc(b1-3)GalNAc
# Procedure, shortened: as §1
# [29] = target: GlcNAc(b1-3)Gal(b1-4)GlcNAc(b1-3)[GlcNAc(b1-3)Gal(b1-4)GlcNAc(b1-3)]GalNAc
# Procedure, shortened: as §1
# [30] = target: GlcNAc(b1-3)Gal(b1-4)GlcNAc(b1-6)[Gal(b1-3)]GalNAc
# Procedure, shortened: as §1
# [31] = target: GlcNAc(b1-3)Gal(b1-4)GlcNAc(b1-6)[GlcNAc(b1-3)Gal(b1-3)]GalNAc
# Procedure, shortened: as §1
# [32] = target: GlcNAc(b1-3)Gal(b1-4)GlcNAc(b1-6)[GlcNAc(b1-3)]Gal(b1-4)GlcNAc
# Procedure, shortened: as §1
# GlcNAc(b1-3)GalNAc = target: GlcNAc(b1-3)GalNAc
# Procedure, shortened: as §1
# GlcNAc(b1-3)Man = target: GlcNAc(b1-3)Man
# Procedure, shortened: as §1
binder,measurement,setting,value
B1,glycan array binding signal (z-score),[1],-0.282
same,glycan array binding signal (z-score),[2],-0.143
same,glycan array binding signal (z-score),[3],0.509
same,glycan array binding signal (z-score),[4],-0.388
same,glycan array binding signal (z-score),[5],-0.39
same,glycan array binding signal (z-score),[6],-0.426
same,glycan array binding signal (z-score),[7],-0.401
same,glycan array binding signal (z-score),[8],-0.563
same,glycan array binding signal (z-score),[9],-0.46
same,glycan array binding signal (z-score),[10],0.031
same,glycan array binding signal (z-score),[11],-0.539
same,glycan array binding signal (z-score),GlcNAc(b1-3)Fuc,0.816
same,glycan array binding signal (z-score),GlcNAc(b1-3)Gal,-0.368
same,glycan array binding signal (z-score),[12],-0.465
same,glycan array binding signal (z-score),GlcNAc(b1-3)Gal(b1-4)Glc,-0.469
same,glycan array binding signal (z-score),[13],-0.404
same,glycan array binding signal (z-score),[14],0.946
same,glycan array binding signal (z-score),[15],0.297
same,glycan array binding signal (z-score),[16],0.851
same,glycan array binding signal (z-score),[17],0.298
same,glycan array binding signal (z-score),[18],1.15
same,glycan array binding signal (z-score),[19],1.21
same,glycan array binding signal (z-score),[20],-0.125
same,glycan array binding signal (z-score),[21],-0.517
same,glycan array binding signal (z-score),[22],1.07
same,glycan array binding signal (z-score),[23],-0.358
same,glycan array binding signal (z-score),[24],1.35
same,glycan array binding signal (z-score),[25],-0.423
same,glycan array binding signal (z-score),[26],-0.553
same,glycan array binding signal (z-score),[27],-0.477
same,glycan array binding signal (z-score),[28],-0.513
same,glycan array binding signal (z-score),[29],-0.188
same,glycan array binding signal (z-score),[30],-0.043
same,glycan array binding signal (z-score),[31],-0.031
same,glycan array binding signal (z-score),[32],-0.484
same,glycan array binding signal (z-score),GlcNAc(b1-3)GalNAc,-0.476
same,glycan array binding signal (z-score),GlcNAc(b1-3)Man,-0.252
